According to PubChem BioAssay AID1347073 (National Center for Advancing Translational Sciences (NCATS), 2019):
Out of some 45,000 compounds screened, about 200 (0.44%) were called active. About 7% were inconclusive and are not listed. Calls come from the whole dose curve; as a rule, active = well fitted activation curve with a large enough effect; inconclusive = small, poorly fitted or top-dose-only effect; inactive = no such curve, though single readings can be large or run the other way. This is one part of the list.

Experiment: qHTS of TDP-43 Inhibitors: NCGC Sytravon Library Screen; note: nearly all actives have a fitted effect of over 55% in size; for growth rescue (activation): 0% is about no effect
Conditions: yeast TDP-43 toxicity rescue, BacTiter-Glo growth, 24 h; series mostly up to 46.1 µM; growth rescue (activation): at the top concentration
In short: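 TDP-43-expressing yeast, pregrown in raffinose, seeded at OD600 0.02 in galactose medium with compound for 24 hr at 30 deg C. Growth read by BacTiter-Glo luminescence, so rescue of toxicity appears as activation.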
Potency is the fitted concentration of half-maximal effect.

Row | Compound | growth rescue (activation) | Potency
1 | O=C(CSC1=NCCS1)Nc1ccc(F)cc1 | inactive: 10.1% | –
2 | CCOc1ccc(C(=O)N[C@H](C(=O)NNC(=O)c2cccs2)C(C)C)cc1 | inactive: 5.15% | –
3 | CC(OC(=O)CN1C(=O)c2ccccc2C1=O)C(=O)NC1CCCC1 (configuration not stated) | inactive: 9.51% | –
4 | CC(=O)Nc1ccc(NC(=S)Nc2ccc(Br)cc2)cc1 | inactive: 19.4% | –
5 | CC(CCc1ccccc1)NC(=O)C(=O)NCCc1ccccc1 (configuration not stated) | inactive: 15.3% | –
6 | Cc1cc(N=Cc2c(O)n(-c3cccc(C(F)(F)F)c3)c(=O)c3ccccc23)no1 | inactive: 6.05% | –
7 | CC(C)(C)NC(=S)NCCc1ccccc1 | inactive: 21.4% | –
8 | COc1ccc(NS(=O)(=O)c2cc(NC(=O)/C=C/c3cc(OC)c(OC)c(OC)c3)ccc2N2CCCCC2)cc1 | inactive: -15.5% | –
9 | Cn1cc(-c2ccc(C(=O)Nc3cccc(Oc4ccccc4)c3)c3occc23)cn1 | inactive: 8.89% | –
10 | O=C(c1cc(-c2ccc3c(c2)OCO3)on1)N1CCCCC1 | inactive: 21% | –
11 | CCc1nc2ccc(C(=O)NCC3CCCCC3)cn2c1N(CCC(C)C)CCN(C)C | inactive: 8.86% | –
12 | CCCOP(=O)(c1ccc(N(C)C)cc1)C(Nc1ccccc1)c1ccc(N(C)C)cc1 (configuration not stated) | inactive: 25.2% | –
13 | O=C(CSc1cccc[n+]1[O-])Nc1ccccc1C(F)(F)F | inactive: -23.2% | –
14 | CCCNC(=O)C1(C)CCN(C(=O)c2cccc(Cl)c2)C1 (configuration not stated) | inactive: 0.28% | –
15 | COC(=O)c1c(C(=O)OC)c(-c2cccc(C)c2)n2c1CS(=O)(=O)C2 | inactive: 7.85% | –
16 | COc1ccc2cc(C(C)C(=O)NC3CCC(O)CC3)ccc2c1 (configuration not stated) | inactive: 1.78% | –
17 | COCCN(C(=S)Nc1ccccc1OC)C1CCN(C(C)=O)CC1 | inactive: 5.64% | –
18 | CCC(C)[C@H](NC(=O)NCc1ccc(S(N)(=O)=O)cc1)C(=O)OC (some centres not stated) | inactive: 6.89% | –
19 | O=C(CN1CCN(c2ccccc2)CC1)N1N=CCC1c1ccccc1 (configuration not stated) | inactive: -4.02% | –
20 | COc1ccc(Br)cc1CN(C)CC(=O)Nc1c(Cl)cccc1Cl | inactive: -4.9% | –
21 | O=C(CN1C(=O)NC2(CCc3ccccc32)C1=O)Nc1cccc(Cl)c1 (configuration not stated) | inactive: 10.5% | –
22 | Cc1sc2nc(SCC(=O)N(CCO)CCO)nc(N)c2c1C | inactive: 19% | –
23 | O=C(NS(=O)(=O)Oc1ccc(F)c(Cl)c1)OC[C@@H]1CCCN2CCCCC12 (some centres not stated) | inactive: 7.17% | –

Row | Compound | growth rescue (activation) | Potency
24 | Cc1ccc(/C([O-])=C(/C(=S)NCc2ccco2)[n+]2ccccc2)cc1[N+](=O)[O-] | inactive: 0.696% | –
25 | COc1ccc(S(=O)(=O)NCC2CC3C=CC2C3)cc1OC (configuration not stated) | inactive: 15.7% | –
26 | O=C(NCCO)c1cc2c([nH]c3ccccc32)c(-c2ccc(F)cc2)n1 | inactive: -1.47% | –
27 | C=CCn1c(-c2ccccc2[N+](=O)[O-])n[nH]c1=S | inactive: 2.35% | –
28 | CCc1cc2c(C)cc(C)cc2nc1SCC(=O)Nc1cc(C)on1 | inactive: 7.41% | –
29 | O=C(CCS(=O)(=O)c1ccc(Cl)cc1)Nc1nccs1 | inactive: 6.38% | –
30 | COc1ccccc1/C=N\Nc1cc(C)nc(-n2nc(C)cc2C)n1 | inactive: 21.3% | –
31 | CC(Sc1nncn1-c1ccccc1)C(=O)Nc1cccc([N+](=O)[O-])c1 (configuration not stated) | inactive: 12.8% | –
32 | NC(=O)c1nsc(C(=O)N(CC(=O)NC2CCCC2)c2ccc(F)c(Cl)c2)c1N | inactive: 10.6% | –
33 | COc1ccc(/C=C/C(=O)N2CCN(S(=O)(=O)/C=C/c3ccccc3)CC2)cc1OC | inactive: 8.25% | –
34 | O=C(NCc1cccnc1)/C(=C/c1ccc([N+](=O)[O-])cc1)NC(=O)c1ccccc1 | inactive: 14.9% | –
35 | CCOC(=O)c1c(C)[nH]c(C(=O)Nc2ccc(NC(C)=O)cc2)c1C | inactive: -1.36% | –
36 | COc1cc2c(cc1OC)C(C(=O)N(C)Cc1ccccc1)C(c1cccnc1)N(C)C2=O (configuration not stated) | inactive: 11.5% | –
37 | CCc1ccc2c(CN3CCN(Cc4ccccc4)CC3)cc(=O)oc2c1 | inactive: -0.28% | –
38 | COc1ccc(OCCNC(=O)c2ccc3nc(C)c(N(C)C(=O)CCc4ccccc4)n3c2)cc1 | inactive: 8.7% | –
39 | COc1ccc(CCC(=O)OCC(=O)Nc2sccc2C#N)cc1 | inactive: 11.3% | –
40 | C/C(=N\Nc1ccc([N+](=O)[O-])cc1)c1ccc2c(c1)OCO2 | inactive: 4.95% | –
41 | O=C(CCCCCl)Nc1c2c(nc3ccccc13)CCC2 | inactive: 11.9% | –
42 | COc1ccc(Nc2ncnc3ccc(Br)cc23)cc1OC | inactive: -12.3% | –
43 | CCC(C(=O)OC)(C(=O)OC)c1ccc([N+](=O)[O-])cc1 | inactive: 22.8% | –
44 | CCOC(=O)CC(NC(=O)CCc1c(C)nc2nc(C)nn2c1C)c1ccc(C)cc1 (configuration not stated) | inactive: 7.13% | –
45 | Cc1cccc(-n2c(C)cc(C=C(C#N)C#N)c2C)c1 | inactive: -26% | –
46 | O=C(NCCCNC(=O)c1cccnc1)c1ccc(Cl)cc1 | inactive: -5.71% | –

Row | Compound | growth rescue (activation) | Potency
47 | Cc1ccc(C(=O)NCC(=O)NCc2ccccc2F)s1 | inactive: 11.7% | –
48 | O=C(Nc1ccccc1Cl)c1cccc(NC(=O)c2cccs2)c1 | inactive: 37.3% | –
49 | CN(CCN1CCOCC1)Cc1nc(-c2ccc(Cl)cc2)no1 | inactive: 0.128% | –
50 | Cc1cc(C)cc(N(C(C)C(=O)NCc2ccc3c(c2)OCO3)S(C)(=O)=O)c1 (configuration not stated) | inactive: -3.88% | –
51 | CCN(CC)C(=O)CSc1nnc(-c2ccccn2)n1Cc1ccccc1 | inactive: 29.5% | –
52 | COc1ccc(N2CCN(C(=S)NC(=O)c3cccs3)CC2)c([N+](=O)[O-])c1 | – | active: 28.2 µM
53 | O=C(CN1C(=O)CCS(=O)(=O)c2ccccc21)NCc1ccc(F)cc1 | inactive: -14.7% | –
54 | COc1ccc(NC(=S)N2CCCC2)c(OC)c1 | inactive: 0.368% | –
55 | O=C(Nc1ccc(OCc2ccccc2)cc1)Nc1nnc([C@H]2C[C@H](O)[C@@H](CO)O2)s1 | inactive: 5.34% | –
56 | Cc1ccc(CN2C(=O)CCC2C(=O)NC2CCCC2)cc1 (configuration not stated) | inactive: 32.6% | –
57 | COc1ccc(OCCN2CCC(C(=O)NC(c3ccc(F)cc3)c3ccc4ccccc4n3)CC2)cc1 (configuration not stated) | inactive: 18.6% | –
58 | O=C(COc1ccc(Oc2ccccc2)cc1)NC1CCS(=O)(=O)C1 (configuration not stated) | inactive: 5.09% | –
59 | COCCNC(=O)C1(C)CCCN(Cc2cccc(F)c2)C1 (configuration not stated) | inactive: -16.4% | –
60 | O=C(O)c1ccc(N2C(=O)CC(N3CCN(c4cccc(C(F)(F)F)c4)CC3)C2=O)cc1 (configuration not stated) | inactive: 20% | –
61 | O=C(NCCc1ccccc1)Nc1cccc(Cl)c1 | inactive: 18.5% | –
62 | O=C(NCc1ccccn1)c1ccc(N2CCCC2)c([N+](=O)[O-])c1 | inactive: 12% | –
63 | CCOc1cc(NC(=S)NCCOC)c(OCC)cc1NC(=O)c1cccs1 | inactive: -0.449% | –
64 | COC(=O)c1ccc(/C=C2\CCn3c2nc2cc(C(=O)O)ccc2c3=O)cc1 | inactive: 6.42% | –
65 | COc1ccc(CC(=O)c2cc(OC)c(OC)cc2CC(=O)O)cc1OC | inactive: -29.5% | –
66 | O=C(NCc1ccc(-c2nc3ccccc3s2)cc1)c1cc2ccccc2o1 | inactive: -0.429% | –
67 | O=C(CN1CCN(C(=O)N2CCOCC2)CC1)Nc1cc(Cl)ccc1Cl | inactive: 11.9% | –
